Experimental data: PMC12184620
These are yes or no findings as the source states them, for the method shown. Binding seen in cells or lysates may run through a third protein. Some results given as binding are weak or reduced against the parent protein; the word gives no strength. Sequences can lack the tags named with a protein.

T1: HA-IKKα (UniProt O15111)
T1 sequence: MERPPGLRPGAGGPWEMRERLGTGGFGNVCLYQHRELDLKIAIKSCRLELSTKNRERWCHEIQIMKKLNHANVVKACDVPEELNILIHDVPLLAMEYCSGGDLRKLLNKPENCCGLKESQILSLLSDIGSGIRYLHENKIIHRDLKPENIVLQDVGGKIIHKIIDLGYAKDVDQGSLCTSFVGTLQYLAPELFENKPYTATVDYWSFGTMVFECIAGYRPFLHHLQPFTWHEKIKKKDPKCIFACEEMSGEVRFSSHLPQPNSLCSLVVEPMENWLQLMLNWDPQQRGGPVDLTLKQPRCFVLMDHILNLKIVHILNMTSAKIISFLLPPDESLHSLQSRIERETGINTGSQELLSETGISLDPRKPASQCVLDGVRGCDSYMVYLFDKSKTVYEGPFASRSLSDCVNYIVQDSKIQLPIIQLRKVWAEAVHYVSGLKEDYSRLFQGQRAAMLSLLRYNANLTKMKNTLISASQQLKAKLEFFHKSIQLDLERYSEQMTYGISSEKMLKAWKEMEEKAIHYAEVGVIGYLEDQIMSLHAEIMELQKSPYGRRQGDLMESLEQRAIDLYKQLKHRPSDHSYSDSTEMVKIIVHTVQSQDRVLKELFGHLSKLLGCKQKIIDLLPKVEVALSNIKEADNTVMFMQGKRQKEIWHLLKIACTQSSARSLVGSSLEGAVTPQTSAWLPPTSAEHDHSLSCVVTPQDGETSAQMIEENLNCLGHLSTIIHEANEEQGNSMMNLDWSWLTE

T2: HA-IKKβ (UniProt O14920)
T2 sequence: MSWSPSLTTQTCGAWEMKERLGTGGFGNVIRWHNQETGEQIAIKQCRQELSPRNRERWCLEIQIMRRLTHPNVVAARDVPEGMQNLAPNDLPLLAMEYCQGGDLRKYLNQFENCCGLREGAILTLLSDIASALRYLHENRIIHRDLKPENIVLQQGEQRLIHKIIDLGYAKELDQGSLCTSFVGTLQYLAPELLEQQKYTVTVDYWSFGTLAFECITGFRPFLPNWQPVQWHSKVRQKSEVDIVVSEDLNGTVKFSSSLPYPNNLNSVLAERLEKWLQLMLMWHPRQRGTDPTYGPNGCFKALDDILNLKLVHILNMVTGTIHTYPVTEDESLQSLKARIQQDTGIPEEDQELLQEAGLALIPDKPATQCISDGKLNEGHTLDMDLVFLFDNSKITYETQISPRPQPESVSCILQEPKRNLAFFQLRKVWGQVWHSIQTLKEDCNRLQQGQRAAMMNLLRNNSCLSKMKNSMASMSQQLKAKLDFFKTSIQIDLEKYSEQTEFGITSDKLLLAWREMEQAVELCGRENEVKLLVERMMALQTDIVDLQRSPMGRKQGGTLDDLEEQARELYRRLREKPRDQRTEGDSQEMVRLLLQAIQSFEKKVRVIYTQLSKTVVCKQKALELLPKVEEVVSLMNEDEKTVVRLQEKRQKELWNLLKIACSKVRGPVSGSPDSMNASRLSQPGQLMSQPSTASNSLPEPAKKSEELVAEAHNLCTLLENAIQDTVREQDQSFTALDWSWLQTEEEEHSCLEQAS

T3: HA-TBK1 (TANK-binding kinase 1) (UniProt Q9UHD2)
T3 sequence: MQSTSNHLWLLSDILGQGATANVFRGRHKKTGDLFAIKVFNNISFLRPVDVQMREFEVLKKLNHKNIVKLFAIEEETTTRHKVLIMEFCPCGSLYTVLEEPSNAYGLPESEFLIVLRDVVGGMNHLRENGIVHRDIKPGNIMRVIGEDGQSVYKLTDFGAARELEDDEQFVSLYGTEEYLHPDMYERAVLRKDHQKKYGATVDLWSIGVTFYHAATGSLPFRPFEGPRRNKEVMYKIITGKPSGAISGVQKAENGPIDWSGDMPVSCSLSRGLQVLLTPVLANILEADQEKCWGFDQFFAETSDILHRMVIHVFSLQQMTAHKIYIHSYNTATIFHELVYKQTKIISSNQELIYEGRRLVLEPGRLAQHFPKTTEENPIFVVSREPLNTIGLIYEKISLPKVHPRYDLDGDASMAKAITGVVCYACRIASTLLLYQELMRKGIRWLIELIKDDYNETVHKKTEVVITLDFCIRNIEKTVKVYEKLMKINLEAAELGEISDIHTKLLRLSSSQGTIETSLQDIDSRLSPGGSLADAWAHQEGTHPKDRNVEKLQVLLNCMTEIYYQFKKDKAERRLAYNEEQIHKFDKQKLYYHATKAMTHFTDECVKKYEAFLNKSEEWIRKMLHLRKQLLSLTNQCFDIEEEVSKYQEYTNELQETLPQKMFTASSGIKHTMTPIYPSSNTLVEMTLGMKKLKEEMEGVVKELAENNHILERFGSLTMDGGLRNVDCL

T4: HA-IKKε (UniProt Q14164)
T4 sequence: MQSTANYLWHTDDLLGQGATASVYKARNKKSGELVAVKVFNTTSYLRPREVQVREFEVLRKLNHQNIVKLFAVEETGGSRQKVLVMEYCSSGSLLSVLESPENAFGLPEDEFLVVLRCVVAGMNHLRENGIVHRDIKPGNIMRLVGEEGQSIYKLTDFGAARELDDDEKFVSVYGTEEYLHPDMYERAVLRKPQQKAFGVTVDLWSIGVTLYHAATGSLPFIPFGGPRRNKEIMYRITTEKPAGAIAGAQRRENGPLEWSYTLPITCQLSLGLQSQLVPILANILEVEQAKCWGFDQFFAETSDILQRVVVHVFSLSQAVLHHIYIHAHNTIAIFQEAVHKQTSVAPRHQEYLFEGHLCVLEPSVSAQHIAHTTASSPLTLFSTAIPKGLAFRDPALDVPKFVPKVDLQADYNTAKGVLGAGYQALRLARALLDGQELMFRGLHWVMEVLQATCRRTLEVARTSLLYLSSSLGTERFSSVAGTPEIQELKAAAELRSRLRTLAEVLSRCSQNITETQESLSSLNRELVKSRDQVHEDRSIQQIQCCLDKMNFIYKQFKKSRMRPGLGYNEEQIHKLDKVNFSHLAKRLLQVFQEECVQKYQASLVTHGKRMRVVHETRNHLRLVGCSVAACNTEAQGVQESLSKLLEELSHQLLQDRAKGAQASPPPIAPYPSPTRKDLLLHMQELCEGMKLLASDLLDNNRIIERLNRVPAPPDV

T5: HA-GADD45A (goat growth arrest and DNA damage protein 45A) (goat)
T5 sequence: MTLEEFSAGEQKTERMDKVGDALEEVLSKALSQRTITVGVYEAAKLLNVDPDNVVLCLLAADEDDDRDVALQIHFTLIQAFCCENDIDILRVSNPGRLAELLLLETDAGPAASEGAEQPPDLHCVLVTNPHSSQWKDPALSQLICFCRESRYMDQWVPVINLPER


Key:
Assay in all cases: co-IP
HA-IKKα = target: T1, HA-IKKα
HA-IKKβ = target: T2, HA-IKKβ
[1] = target: T3, HA-TBK1 (TANK-binding kinase 1)
HA-IKKε = target: T4, HA-IKKε
[2] = target: T5, HA-GADD45A (goat growth arrest and DNA damage protein 45A) (goat)

Row | binding (HA-IKKα) | binding (HA-IKKβ) | binding [1] | binding (HA-IKKε) | Binder | binding [2]
1 | no binding | no binding | binds | no binding | Myc-GADD45A (goat growth arrest and DNA damage protein 45A) (protein, UniProt A0A452G3C0 1-165) MTLEEFSAGEQKTERMDKVGDALEEVLSKALSQRTITVGVYEAAKLLNVDPDNVVLCLLAADEDDDRDVALQIHFTLIQAFCCENDIDILRVSNPGRLAELLLLETDAGPAASEGAEQPPDLHCVLVTNPHSSQWKDPALSQLICFCRESRYMDQWVPVINLPER | –
2 | – | – | – | – | Flag-TBK1 (TANK-binding kinase 1) (enzyme, UniProt Q9UHD2 1-729) MQSTSNHLWLLSDILGQGATANVFRGRHKKTGDLFAIKVFNNISFLRPVDVQMREFEVLKKLNHKNIVKLFAIEEETTTRHKVLIMEFCPCGSLYTVLEEPSNAYGLPESEFLIVLRDVVGGMNHLRENGIVHRDIKPGNIMRVIGEDGQSVYKLTDFGAARELEDDEQFVSLYGTEEYLHPDMYERAVLRKDHQKKYGATVDLWSIGVTFYHAATGSLPFRPFEGPRRNKEVMYKIITGKPSGAISGVQKAENGPIDWSGDMPVSCSLSRGLQVLLTPVLANILEADQEKCWGFDQFFAETSDILHRMVIHVFSLQQMTAHKIYIHSYNTATIFHELVYKQTKIISSNQELIYEGRRLVLEPGRLAQHFPKTTEENPIFVVSREPLNTIGLIYEKISLPKVHPRYDLDGDASMAKAITGVVCYACRIASTLLLYQELMRKGIRWLIELIKDDYNETVHKKTEVVITLDFCIRNIEKTVKVYEKLMKINLEAAELGEISDIHTKLLRLSSSQGTIETSLQDIDSRLSPGGSLADAWAHQEGTHPKDRNVEKLQVLLNCMTEIYYQFKKDKAERRLAYNEEQIHKFDKQKLYYHATKAMTHFTDECVKKYEAFLNKSEEWIRKMLHLRKQLLSLTNQCFDIEEEVSKYQEYTNELQETLPQKMFTASSGIKHTMTPIYPSSNTLVEMTLGMKKLKEEMEGVVKELAENNHILERFGSLTMDGGLRNVDCL | binds
